Results from the supplement of paper PMC11417369.
± gives the standard deviation of the averaged measurements. The list shows a part of the results.

These sequences were tested on PfAP2-G AP2 domain (GST-tagged) (assay: gcPBM binding intensity (ln(normalized median fluorescence intensity)); higher = stronger DNA binding).
In short: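 Binding of GST-tagged P. falciparum DNA-binding domains, expressed in E. coli and used at about 25 μg on average, was carried out for 1 h in 1× PBS containing 1% milk, 0.2 mg/ml BSA, 0.5% salmon testes DNA and 0.03% Triton X-100. The target was an Agilent 4 × 180k array of primer-extended double-stranded 36-bp intergenic genomic probes plus negative controls, read with Alexa488 anti-GST antibody at 488 nm. Binding intensity is the highest Masliner-normalised natural-log median intensity across replicate spots of either probe orientation.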

Sequence | gcPBM binding intensity (ln)
AACAATTATTTATCTACACACTTTTATGTTATTTAC [CACACA_site9] | 9.98 ± 0.16
TAAAAAATATAAATGACACACACTTAAAAACAAAGA [CACACA_site671] | 10.2 ± 0.18
TATAAATTAATGACATGTACATAAAAGTATAGATGT [XGTACX_site6534] | 11.3 ± 0.71
TATTTTCATTTGCGCGCACACAATAATAATTTTTGG [CACACA_site3525] | 10.7 ± 0.33
AAATATACAAAATATACACACATATTTATTTATGAT [CACACA_site2051] | 9.725 ± 0.049
AATATATCATTATATAAACACACAATATGTTTTTTA [CACACA_site9260] | 9.55 ± 0.24
AAAAATATATATATATATATATATATAAGGAATATA [XGTACX_negctrl_site450] | 9.49 ± 0.28
AATAAATATATAAATACACACAAACATACATATATA [CACACA_site9340] | 9.97 ± 0.042
TCTATTCATTTTGAAGGTACACATTTCTTTATAATA [XGTACX_site6218] | 11 ± 0.71
GTATTAGATAAATACACACACAAGCATATATTTTTA [CACACA_site3431] | 9.92 ± 0.014
CGTAAACAATTATGATGTACATAAAATATATATATA [XGTACX_site2705] | 11.3 ± 0.71
AATACAATATAGTGAAAAATAATTAAATACAATAAG [XGTACX_negctrl_site161] | 9.81 ± 0.22
ACAAAAAAAAAAATAACACACATGGGGGTGTATAAA [CACACA_site3797] | 10.7 ± 0.52
TTGTTCCACAAAAATTTAGTCAAAAAAAAATAAAAA [TGCATGCA_negctrl_site546] | 10.2 ± 0.36
TATGTGTATGGGAATGCATGTAAATATGTACATATA [TGCATGCA_site737] | 11.4 ± 0.84
ATATATATATACATATGTACATATAAAATAATTTTG [XGTACX_site3731] | 11.1 ± 0.74
TTAAATTTTTTTTTGTGTACGAAAAACAGAAAAAAT [XGTACX_site8625] | 11.4 ± 1
ATATAGATATATAGTAGTACTTGTTATATAAGATAA [XGTACX_site6336] | 11.2 ± 0.77
ACAGAGCTTTAAATACGTACATAATATATATTAAAT [XGTACX_site8221] | 11.6 ± 0.88
TATTGATTTAGAAACACACACTCGAAGATGTTTAAC [CACACA_site1129] | 9.945 ± 0.078
TTTAAAAAATGTTATATTATATAATTAAAAAAAAAA [CACACA_negctrl_site1509] | 9.57 ± 0.014
ATATATATATATAAATGTACATTGTGTGTTGTAAGA [XGTACX_site2434] | 10.8 ± 0.38

Sequence | gcPBM binding intensity (ln)
ATAAAAAAAAAATAATGTACTTATATATATATATAT [XGTACX_site8282] | 11.1 ± 0.82
AAAAAAAAAAAAAAGAGTACACAGACGTTCAAAGGT [XGTACX_site7566] | 11.7 ± 0.77
TGTATGTATTAATGCGCACACAAAAAATAACAATAT [CACACA_site1848] | 10.7 ± 0.34
TATTAATTGTGGCACCTTGTATGTTTACAATGACAT [CACACA_negctrl_site1383] | 10.4 ± 0.11
TTCTTCAAAAAAAATTGTACACATCTCTCAAATGTT [XGTACX_site2952] | 11.3 ± 0.78
AATGGATGAATGAATGTATGAATGAATGTATGAATG [CACACA_negctrl_site91] | 9.84 ± 0.2
GTATATTATTTACGTTTGCACTTCATTTTATAGTAA | 10.4 ± 0.24
GTATTCATGCTAAAGGTGCAATAATTTTTATAATAA [GTGCAC_site9603] | 10.2 ± 0.21
AAGATAAAATTATGTAGTACAAAAAAAAATAAAAAA [XGTACX_site139] | 11.7 ± 0.91
ATCAAACCTTTTAAATGTACATTCGGAGTAAAAAAA [XGTACX_site282] | 10.9 ± 0.49
ATGTATGTGTAACATAGTACTTTTTAAAAGGATATT [XGTACX_site5328] | 11 ± 0.58
TATAGATACATATACACACACACACCCACATATATA [CACACA_site3436] | 10.4 ± 0.36
TATTTTTTATAATAATGTACATATATATATATAATA [XGTACX_site2329] | 11.2 ± 0.62
AATATCATATAAAAATGTACAAATTCTAAAACACGA [XGTACX_site1442] | 10.8 ± 0.45
TACCTAATTCGGTCCCGTACAAGTTAGTTTCAATTC [XGTACX_site2703] | 10.9 ± 0.59
TATTGGGGGTATAAACACAGTAAGTAAATAAATAAA [CACACA_negctrl_site1680] | 10.6 ± 0.54
TTAAAAATGTTGGAAAGTACATATTTTTTAAAAGTA [XGTACX_site802] | 11.1 ± 0.61
CGCCTATAAGCTTAGACACACAAATAAATAAATATA [CACACA_site1264] | 10 ± 0.12
ATTATTTTATAATTCACACATAAATAAAAAAAAAAT [CACACA_site5290] | 9.84 ± 0.13
CAATTTATAAAGAAAACACACATATACATATATACA [CACACA_site1260] | 9.98 ± 0.014
TATTAAACAAATTATGCAAAAATAAATCAATATGTT [CACACA_negctrl_site171] | 9.915 ± 0.049
